Experimental data published in PubChem BioAssay AID434955 (Southern Research Specialized Biocontainment Screening …, 2010).
The list shows a part of the results. Further columns of the screen follow, without active or inactive calls. Most of these compounds were active or inconclusive in the main read-out, so they are no random draw.

Test: beta-lactam sensitization of Mtb H37Rv, H37Rv (AID 434955);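 note: growth measured after seven days incubation then overnight dye step; 0% = bacteria only wells and 100% = bacteria with antibiotic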
Conditions: M. tuberculosis H37Rv growth with meropenem, percent inhibition; measured here: primary screen without meropenem; at 25 µM

| SMILES | inhibition |
| --- | --- |
| COC(=O)Cn1ncc2c3ccccc3n(Cc3ccccc3)c2c1=O | -3.64% |
| COc1cc(OC)c(OC)cc1/C=N/n1c(COc2ccccc2)n[nH]c1=S | 2.15% |
| Cc1ccc(S(=O)(=O)N(C)c2ccc(OCC(=O)Nc3nc4c(ccc5ccccc54)s3)cc2)cc1 | -3.14% |
| c1ccc(-c2cc(N3CCOCC3)nc3ccccc23)cc1 | 16.1% |
| Nn1c(SCc2nc3ccccc3[nH]2)nnc1-c1cccnc1 | -4.89% |
| O=C1S/C(=C\C=C\c2ccco2)C(=O)N1c1ccccc1 | 27.6% |
| COc1cc2c(cc1OC)C(C(=O)Nc1ccccn1)C(c1cccnc1)N(C)C2=O (configuration not stated) | -0.17% |
| S=c1[nH]nc(C2CCCCC2)n1/N=C/c1ccc(Cl)cc1 | 7.73% |
| CCc1nnc(NC(=O)CSc2nnc(C)n2CC2CCCO2)s1 (configuration not stated) | 0.94% |
| CCc1ccc(C(C)(O)C(CN2CCOCC2)c2ccccc2)cc1 (configuration not stated) | 1.19% |
| O=C(Nc1ccc(F)cc1)C1CCCN(S(=O)(=O)c2ccc3[nH]c(=O)ccc3c2)C1 (configuration not stated) | -10.1% |
| CC(C)(C)c1ccc(C(=O)NNC(=O)C(=O)N2CCCCC2)cc1 | 41% |
| O=C(CN1C(=O)/C(=C/c2ccccc2Cl)SC1=S)NC1CCS(=O)(=O)C1 (configuration not stated) | 1.71% |
| Cc1cn([C@@H](CCCCNC(=O)OC(C)(C)C)C(=O)NCCCCCCCCCCC(=O)N2CCN(C(=O)OC(C)(C)C)CC2)nn1 | -1.06% |
| COC(=O)C(NC(=O)c1ccccc1C)(Nc1ncc(S(=O)(=O)c2ccc([N+](=O)[O-])cc2)s1)C(F)(F)F (configuration not stated) | 80.9% |
| CCOc1ccc(N/C=C/C(=O)c2ccccc2)c([N+](=O)[O-])c1 | -1.71% |
| Cc1oc2c(CN3CCCC3)c(O)ccc2c(=O)c1Oc1ccccc1Br | -2.52% |
| Cc1cc(NC(=O)CN2C(=O)c3ccccc3S2(=O)=O)no1 | 7.34% |
| Cc1ccc(SCC(=O)NC2CCCCCC2)cc1 | 12.7% |
| COc1ccc(C(=O)O)cc1NC(=S)NC(=O)CSc1ccc(Cl)cc1 | -1.03% |
| COc1ccc(-n2c(SCC(=O)N3CCOCC3)nc3ccccc3c2=O)cc1 | -7.37% |
| CCSc1nnc(Cn2c(=O)sc3ccccc32)n1-c1ccccc1C | -1.5% |
| Cc1cc(C(=O)CN2C(=O)CCC2=O)c(C)n1Cc1ccccc1 | 1.95% |

| SMILES | inhibition |
| --- | --- |
| CCN(C(=O)c1cccc(NC(=O)c2ccccc2)c1)C1CCCCC1 | 3.97% |
| O=C(CCCN1C(=O)/C(=C/c2ccccc2Cl)SC1=S)NCCCN1CCOCC1 | 0.91% |
| COc1ccccc1CNC(=O)c1cc(C2CC2)nc2c1cnn2C(C)C | 89% |
| CCn1nc(C)c(C(=O)Nc2cc(Oc3ccc(Cl)cc3)cc([N+](=O)[O-])c2)c1C | 8.98% |
| COC(=O)c1ccccc1NC(=O)c1ccc(-c2ccc(Br)cc2)o1 | 18.2% |
| COc1ccc(CCNC(=O)C2CCCN(S(=O)(=O)c3cc(C)ccc3OC)C2)cc1OC (configuration not stated) | -1.02% |
| Cc1cccc(CN2CCNC2=O)c1 | 1.68% |
| CC(Oc1ccc(Cl)cc1Cl)C(=O)NCCCCc1ccccc1 (configuration not stated) | 30.3% |
| COCC1CCCCN1C(=O)c1ccc2oc(CCc3ccccc3)nc2c1 (configuration not stated) | 2.95% |
| C/C(CC(=O)Nc1ccc(Cl)cc1)=N\NC(=O)C(=O)NCCO | -11.9% |
| Cc1cc2c(=O)n(Cc3ccco3)c(SCC(=O)c3ccc(Cl)s3)nc2s1 | 2.63% |
| COc1ccc2nc(/N=C/c3c(C)[nH]n(-c4ccc(C)cc4)c3=O)sc2c1 | 28.7% |
| C=CCC1(CC=C)CCCN1C(=O)c1cc(COc2ccccc2SC)on1 | 9.16% |
| CC(C)CCN(C(=O)Nc1ccccc1)C(C)c1cccs1 (configuration not stated) | -9.79% |
| Cc1ccc(S(=O)(=O)Nc2ccccc2C(=O)N2CCN(C)CC2)cc1 | -6.88% |
| Cc1ccc2c(C)c(C(=O)Nc3ccc(S(=O)(=O)Nc4onc(C)c4C)cc3)oc2c1 | 5.87% |
| O=C(Cc1ccc2c(c1)OCCO2)N1CCN(S(=O)(=O)c2ccccc2C(F)(F)F)CC1 | 6.46% |
| CCOc1ccc(-c2nnc(-c3ccc(OC)cc3)o2)cc1 | 16.9% |
| Cc1ccc(S(=O)(=O)N2CCC(C(=O)N3CCN(c4ccccn4)CC3)CC2)cc1 | 3.29% |
| COC(=O)CN1C(=O)CC(C)(C)S(=O)c2ccccc21 (configuration not stated) | -5.73% |
| O=C(CN(Cc1ccc(Br)cc1)S(=O)(=O)c1ccccc1)NCC1CCCO1 (configuration not stated) | 0.67% |
| O=C1c2ccccc2C(=O)N1n1c(=O)[nH]c2ccccc2c1=O | 2.08% |
| Cc1ccc(C)c(CN2CCC(CNC(=O)Nc3ccc(F)c(Cl)c3)CC2)c1 | 28.4% |

| SMILES | inhibition |
| --- | --- |
| O=C(c1cc[n+]([O-])cc1)N1CCCC(N2CCN(c3cccc(C(F)(F)F)c3)CC2)C1 (configuration not stated) | 2.34% |
| Cc1cc(C(F)(F)F)nc(SCC(=O)Nc2cc(C)on2)n1 | 5.08% |
| COc1ccc(N(CC(=O)NCCSC2CCCCC2)S(=O)(=O)c2ccccc2)c(OC)c1 | 0.89% |
| Cc1cc(C)n(S(=O)(=O)c2ccc(C(C)(C)C)cc2)n1 | -6.26% |
| COc1ccc(C(=O)N(CN2CCCC2=O)c2nccs2)cc1OC | -7.69% |
| Cn1c(=O)n(CCc2ccccc2)c(=O)c2c1nc1n2CCN1Cc1ccco1 | 2.12% |
| Cc1oc2cc3oc(=O)c(CCC(=O)N(C)CC(=O)O)c(C)c3cc2c1C | 2.68% |
| CN(/N=C/c1ccncc1)c1cnc2ccccc2n1 | 1.96% |
| CCc1nc(N2CCN(C(=O)c3ccco3)CC2)c2oc3ccccc3c2n1 | 2.24% |
| O=C(COC(=O)C1=COCCO1)Nc1ccc2c(c1)OCO2 | 30.9% |
| O=C(c1ccc(Cn2cc([N+](=O)[O-])cn2)o1)N1N=C(C(F)F)CC1(O)C(F)F (configuration not stated) | -6% |
| CC(C)(C#CC(=O)O)OOC(c1ccccc1)(c1ccccc1)c1ccccc1 | -0.11% |
| CCN(C(=O)c1cc2c(=O)[nH]c3ccc(C)cc3c2s1)c1cccc(C)c1 | 5.56% |
| O=C(NCc1ccc(F)cc1)c1cc(-c2ccco2)on1 | -2.9% |
| N#Cc1nc(-c2ccccc2Cl)oc1N1CCN(C(=O)c2ccco2)CC1 | 5.03% |
| Cc1ccc(C2C(N)C(=O)N2c2ccc(C)cc2)cc1 (configuration not stated) | -3.55% |
| Cc1cc2cc(CNC(=O)C(C)Oc3ccccc3)ccc2n1C (configuration not stated) | 28% |
| CCOC(=O)c1ccc(/[N+]([O-])=C/c2ccccc2)cc1 | 91.2% |
| CCCS(=O)(=O)Nc1ccc(-c2cn3c(n2)SCC3)cc1 | 1.99% |
| COc1cc(CN2CCN(c3cc(C)ccc3C)CC2)cc([N+](=O)[O-])c1O | 6.13% |
| O=C(Nc1cccc(Cl)c1Cl)c1ccccc1OCC(=O)N1CCOCC1 | 14.7% |
